Source: PubChem BioAssay AID485341 (National Center for Advancing Translational Sciences (NCATS), 2010)
Out of some 330,000 compounds screened, about 1,700 (0.52%) were called active. This list was built around the results that the source calls inconclusive (neither active nor inactive); the mix of calls is not that of the screen. Calls follow the shape of the dose curve; as a rule, active = well fitted inhibition curve with a large enough effect; inconclusive = small, poorly fitted or top-dose-only effect; inactive = no such curve, though single readings can be large or run the other way. A potency beside an inconclusive call is a rough fit, not a confirmed value. Some compounds were tested as several samples or in several runs, with calls that do not always agree.
Also: nearly all actives have a fitted effect of over 20% in size.
Potency is read from the fitted curve at half-maximal effect; tags tell the direction and shape of the fitted curve.

What follows are compounds tested against Beta-lactamase (Escherichia coli (strain K12)) (UniProt P00811) (assay: qHTS Inhibitors of AmpC Beta-Lactamase (assay without detergent)). Settings: AmpC nitrocefin hydrolysis, absorbance 480 nm, 0.0001% Triton; activity change, negative = inhibition: at 57.1 µM (top of the series) unless noted.
Chain of UniProt P00811 (P00811 whole entry, looked up): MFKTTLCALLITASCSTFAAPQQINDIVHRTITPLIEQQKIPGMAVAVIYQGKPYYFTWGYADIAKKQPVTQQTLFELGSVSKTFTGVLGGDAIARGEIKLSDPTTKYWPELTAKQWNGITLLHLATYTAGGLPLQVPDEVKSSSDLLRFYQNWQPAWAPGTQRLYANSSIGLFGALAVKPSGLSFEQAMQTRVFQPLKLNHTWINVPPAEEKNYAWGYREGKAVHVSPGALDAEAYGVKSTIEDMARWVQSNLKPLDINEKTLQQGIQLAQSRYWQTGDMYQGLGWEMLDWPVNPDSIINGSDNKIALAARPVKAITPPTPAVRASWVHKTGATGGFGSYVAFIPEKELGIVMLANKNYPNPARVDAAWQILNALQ
Procedure: NIH Molecular Libraries Probe Production Network [MLPCN] NIH Chemical Genomics Center [NCGC] Assay Provider: Professor Brian Shoichet, UCSF Assay Overview: This aggregation profiling approach exploits the sensitivity of aggregate formation to detergent. Inhibition of b-lactamase is measured in the presence and absence of 0.01% Triton X-100. This particular assay had the prescence of 0.01% Triton X-100. See Pubchem assay "Promiscuous and Specific Inhibitors of AmpC Beta-Lactamase (assay without detergent)" for related screen. Compounds that inhibit only in the absence of detergent are considered likely promiscuous aggregators. A screen of 1,030 compounds was performed in Brian Shoichet's lab in 96-well format. AmpC activity was measured by following the absorbance at 480 nm. Nitrocefin is a chromogenic substrate: while nitrocefin is yellow (lmax 390 nm), the product of its hydrolysis is red (lmax 486 nm, 17,000 M-1). AmpC beta lactamase was provided by Shoichet Lab, UCSF.
Buffer: 20 mM phosphate buffer, pH 7.0 Triton X-100: No Detergent screen: 0.0001%, Detergent screen: 0.01%. Reagents/Controls: Buffer in columns 3 and 4 as negative control (no enzyme). 5.3 nM AmpC in columns 1, 2, 5-48. Titration of UCSF compound 9 control (from 10 mM, then 1:2) pin-transferred to column 2. Column 1 is neutral (100% activity). Assay Steps: Six uL of reagents were dispensed to 1536-well Greiner black clear bottom plates. Compounds and controls (23 nL) were transferred via Kalypsys PinTool. The plates were incubated for 15 min at room temperature, and then 2 uL of 800 uM solution of nitrocefin was added to start the reaction. The plates were immediately transferred to and read every 20 seconds for 4 min on ViewLux (Perkin-Elmer) High-throughput CCD imager using 480 nm absorbance protocol. During dispense, reagent bottles were kept submerged into 4 deg C water bath. Keywords: NIH Roadmap, MLSCN, MLI, MLSMR, qHTS, NCGC, AmpC Beta-Lactamase, Aggregation
For `CCOC(=O)NC(Nc1ccc(C)cn1)(C(F)(F)F)C(F)(F)F`, the Potency was inconclusive: 0.447 µM [inhibitor, partial curve, poor fit].
For `O=C(Nc1ccccc1)c1cccc(S(=O)(=O)NC2CCCC2)c1`, the Potency was inconclusive: 11.2 µM [inhibitor, partial curve, poor fit].
For `CCN1C(=O)[C@H]2[C@@H](c3ccc(-c4ccc5c(c4)OCO5)cc3)N[C@@](Cc3ccccc3)(C(=O)OC)[C@H]2C1=O`, the “activity change, negative = inhibition” value was inactive: -15.1%.
For `Cc1ccc[n+](CC(=O)Nc2cc(C(F)(F)F)ccc2Cl)c1`, the Potency was inconclusive: 6.31 µM [inhibitor, single point].
`COc1ccc(C(=O)Nc2oc(-c3ccccc3)c(-c3ccccc3)c2C#N)cc1` was tested, and the Potency was active: 8.91 µM.
For `O=C(Nc1cc(-c2ccccc2)[nH]n1)c1ccc(Cl)cc1`, the Potency was active: 7.08 µM.
In the case of `c1ccc2cc(CC3=NCCN3)ccc2c1`, the Potency is reported as inconclusive: 6.31 µM [inhibitor, single point].
With `CN(C)c1ccc(S(=O)(=O)NCC(=O)NCCC2=CCCCC2)cc1[N+](=O)[O-]` the “activity change, negative = inhibition” value was inactive: -1.58%.
For `CC(C)c1ccc(C(O)c2cnc(C(C)C)n2C)cc1` (centres undefined), the Potency was inconclusive: 8.91 µM [inhibitor, full curve, poor fit].
For `Cc1nc2cc(NC(=O)NCc3ccco3)ccc2o1`, the Potency was active: 0.355 µM.
With `Cc1c(C(=O)N2CCN(C(c3ccccc3)c3ccccc3)CC2)oc2ccccc12` the Potency was inconclusive: 1.58 µM [inhibitor, full curve, poor fit].
`COc1ccc(OC)c(C(=O)CSc2nccc(-c3ccc(Br)cc3)n2)c1` was tested, and the Potency was inconclusive: 7.08 µM [inhibitor, single point].
For `Fc1ccc2[nH]c3c(N4CCSCC4)ncnc3c2c1`, the Potency was inconclusive: 39.8 µM [inhibitor, single point].
With `O=C(Nc1cccc([N+](=O)[O-])c1)c1cc2ccccc2cc1O` the Potency was active: 12.6 µM.
In the case of `O=C(NCC(c1ccco1)N1CCOCC1)C1CCCCC1` (centres undefined), the Potency is reported as inconclusive: 39.8 µM [inhibitor, single point].
With `O=C1CC(NS(=O)(=O)c2ccccc2F)CN1c1ccc2c(c1)OCCO2` (centres undefined) the Potency was inconclusive: 35.5 µM [inhibitor, single point].
For `CCN(CC)S(=O)(=O)c1ccc2oc(C(=O)NCc3ccc(F)cc3)c(C)c2c1`, the “activity change, negative = inhibition” value was inactive: -14.2%.
With `COc1ccc2sc(N(CCCN(C)C)C(=O)c3ccc(S(=O)(=O)N(C)Cc4ccccc4)cc3)nc2c1` the Potency was inconclusive: 39.8 µM [inhibitor, single point].
With `CCc1ccc(S(=O)(=O)Nc2cc(SCC(=O)O)c(O)c3ccccc23)cc1` the “activity change, negative = inhibition” value was inactive: -34%.
`COc1cc(/C=C/C(=O)OCC(=O)NC(=O)NC23CC4CC(CC(C4)C2)C3)ccc1OCC#N` was tested, and the Potency was active: 8.91 µM.
With `C=CCc1cc(C)ccc1OCC(O)CN1CCN(c2ccccc2)CC1` (centres undefined) the “activity change, negative = inhibition” value was inactive: 44.9%.
For `Cc1cc(/C=N/NC(=O)c2cccs2)c(C)n1-c1ccccc1`, the Potency was inconclusive: 22.4 µM [inhibitor, single point].
`C/C(=N\N1CCCCC1)c1ccccc1O` was tested, and the “activity change, negative = inhibition” value was inactive: -19.9%.
For `COc1ccccc1-c1cc(C(=O)N2CCN(c3ccc(F)cc3)CC2)no1`, the “activity change, negative = inhibition” value was inactive: -9.25%.
`CC(C)c1ccccc1NC(=O)COC(=O)c1cc([N+](=O)[O-])ccc1N1CCOCC1` was tested, and the Potency was inconclusive: 31.6 µM [inhibitor, single point].
For `Nc1nc2c3ccccc3nc(Cc3ccccc3)n2n1`, the Potency was inconclusive: 6.31 µM [inhibitor, single point].
With `CC(C)CSC1=NSC2=NC(=O)/C(=C\c3coc4ccccc4c3=O)C(=N)N12` the Potency was inconclusive: 14.1 µM [inhibitor, partial curve].
`N#C/C(=C\c1c(Cl)cccc1Cl)c1nc2ccccc2[nH]1` was tested, and the Potency was active: 11.2 µM.
For `O=C(CCC(=O)Nc1ccccc1)N/N=C/c1cccnc1`, the “activity change, negative = inhibition” value was inactive: -14.2%.
In the case of `COc1cccc(NC(=O)CN(c2cccc(OC)c2)S(C)(=O)=O)c1`, the “activity change, negative = inhibition” value is reported as inactive: -21.2%.
`COc1cc(/C=C(\C#N)c2nc3ccccc3[nH]2)cc(Br)c1OCc1ccccc1` was tested, and the Potency was inconclusive: 39.8 µM [inhibitor, single point].
With `CCCCNC(=O)Nc1ccc(C(O)(C(=O)OC)C(F)(F)F)cc1` (centres undefined) the “activity change, negative = inhibition” value was inactive: -16.5%.
`NC(=O)[C@H](Cc1cc2ccccc2s1)NC(=O)[C@@H]1CC2(CC(c3cccc(NC(=O)[C@@H]4CCC(=O)N4)c3)=NO2)CN1C(=O)/C=C/Sc1ccccc1` (some centres undefined) was tested, and the “activity change, negative = inhibition” value was inactive: 202%.
For `Cc1cc2c(SCC(=O)N3CCN(c4ccccc4)CC3)ncnc2s1`, the Potency was inconclusive: 35.5 µM [inhibitor, single point].
`COc1ccc(/C=C/C(=O)c2sc(-c3ccccc3)nc2C)cc1` was tested, and the “activity change, negative = inhibition” value was inactive: -10.7%.
With `COc1ccc(/C=N/OCC(=O)N=Nc2c(O)[nH]c3ccc(Br)cc23)cc1OC` the Potency was active: 3.16 µM.
In the case of `CCOC(=O)C1=C(CSc2nc(-c3ccccc3)ccc2C#N)OC(N)=C(C#N)C1c1ccccc1` (centres undefined), the Potency is reported as inconclusive: 7.08 µM [inhibitor, full curve, poor fit].
With `CCN(CC(=O)NCC(=O)Nc1ccc(Br)cc1C)Cc1ccccc1` the Potency was inconclusive: 35.5 µM [inhibitor, single point].
For `CCc1c(C)nc2[nH]nc(-c3ccccc3)n2c1=O`, the “activity change, negative = inhibition” value was inactive: -24.7%.
For `O=C(CSc1nnc(Nc2ccccc2F)s1)c1cc2ccccc2o1`, the Potency was active: 35.5 µM.
With `C=C1c2cccc(O)c2C(=O)C2C(=O)[C@]3(O)C(=O)C(C(N)=O)C(=O)[C@@H](N(C)C)[C@@H]3[C@@H](O)[C@H]12` (some centres undefined) the Potency was active: 8.91 µM.
For `COC(=O)CSc1nnc(NC(=O)C2CC(=O)N(c3ccc(F)cc3)C2)s1` (centres undefined), the Potency was inconclusive: 14.1 µM [inhibitor, partial curve, poor fit].
In the case of `Cc1ccsc1/C=N/NC(=O)c1nnn(-c2nonc2N)c1-c1ccccc1`, the Potency is reported as inconclusive: 39.8 µM [inhibitor, single point].
With `CCc1ccc(NC(=O)CN(c2cc(C)cc(C)c2)S(=O)(=O)c2c(C)[nH]c(=O)[nH]c2=O)cc1` the Potency was inconclusive: 1.58 µM [inhibitor, full curve, poor fit].
In the case of `COc1ccc(-c2nnc(NC(=O)CS(=O)(=O)c3ccc(F)cc3)o2)c(OC)c1`, the Potency is reported as inconclusive: 35.5 µM [inhibitor, single point].
In the case of `C[C@@H]1CN([C@H](C)CO)C(=O)c2cc(NS(=O)(=O)c3ccc(F)cc3)ccc2O[C@@H]1CN(C)Cc1ccc(Cl)c(Cl)c1`, the “activity change, negative = inhibition” value is reported as inactive: 149%.
In the case of `O=C(CC(c1ccccc1)c1cc(Br)ccc1O)NCc1ccco1` (centres undefined), the Potency is reported as inconclusive: 2.24 µM [inhibitor, full curve, poor fit].
For `O=C(Nc1c(Cl)cc(Cl)cc1-c1nc2ccccc2s1)c1ccc(Br)o1`, the Potency was inconclusive: 25.1 µM [inhibitor, partial curve].
In the case of `O=C(Cc1ncc(C(F)(F)F)cc1Cl)Nc1ccc(F)cc1`, the Potency is reported as active: 0.158 µM.
With `CCC(=O)c1ccc(OCC(O)CN2CCN(c3cccc(C(F)(F)F)c3)CC2)cc1` (centres undefined) the Potency was inconclusive: 1.12 µM [inhibitor, partial curve, poor fit].
`CSc1ccc(NC(=O)CSc2nc3[nH]c(=O)cc(O)c3s2)cc1` was tested, and the Potency was inconclusive: 25.1 µM [inhibitor, single point].
With `COc1ccc(OC)c(-c2cc(C(=O)NCCN3CCOCC3)no2)c1` the “activity change, negative = inhibition” value was inactive: -9.8%.
`CC(=O)C1=C(c2ccccc2)NC(=S)NC1c1cc(Cl)c(OC(C)C)c(Cl)c1` (centres undefined) was tested, and the Potency was inconclusive: 11.2 µM [inhibitor, partial curve].
With `Cc1ccc(NC(=O)C(OC(=O)c2ccc(O)cc2)c2ccccc2)cc1Cl` (centres undefined) the Potency was active: 7.08 µM.
For `COc1ccccc1C(=O)NCCC(=O)N(C)CC(=O)Nc1ccc(N2CCOCC2)cc1`, the Potency was inconclusive: 39.8 µM [inhibitor, single point].
In the case of `COc1cccc(C(c2sc3ncnn3c2O)N2CC(C)OC(C)C2)c1` (centres undefined), the Potency is reported as inconclusive: 100 µM [inhibitor, partial curve, poor fit].
For `CCOc1cc(C2c3c(n[nH]c3C)C(=O)N2c2ccc(C)cc2)ccc1O` (centres undefined), the Potency was inconclusive: 3.98 µM [inhibitor, full curve, poor fit].
For `O=C(Nc1ccccc1)C1CCCCN1S(=O)(=O)c1ccccc1` (centres undefined), the “activity change, negative = inhibition” value was inactive: -25.6%.
With `O=C(CSc1nc2ccccc2c(=O)[nH]1)Nc1ccccc1C(F)(F)F` the Potency was inconclusive: 8.91 µM [inhibitor, full curve, poor fit].
In the case of `COC(=O)c1ccccc1NC(=O)C1CCN(S(C)(=O)=O)CC1`, the Potency is reported as active: 0.158 µM.
For `Cc1c(O)nc(SCC(=O)Nc2ccc3c4c(cccc24)CC3)n(-c2ccccc2)c1=O`, the Potency was active: 35.5 µM.
For `Oc1ccc(NC(=S)N=Nc2c(O)[nH]c3ccc(Br)cc23)cc1`, the Potency was active: 17.8 µM.
In the case of `COc1ccc(NS(=O)(=O)c2ccc(-c3n[nH]c(=S)n3Cc3ccccc3)cc2)cc1`, the Potency is reported as active: 7.94 µM.
In the case of `O=C(NNC(=S)Nc1cccc(C(F)(F)F)c1)c1ccc(Cl)cc1Cl`, the Potency is reported as inconclusive: 1.26 µM [inhibitor, full curve, poor fit].
For `CCc1ccc(S(=O)(=O)/N=C2\C=CC(=O)c3ccccc32)cc1`, the Potency was active: 15.8 µM.
In the case of `CCC(=NCCCN1CCOCC1)c1c(O)n(Cc2ccccc2)c(=O)[nH]c1=O`, the Potency is reported as inconclusive: 6.31 µM [inhibitor, single point].
`CC(=O)N(c1ccc(Br)cc1)C1C=CS(=O)(=O)C1` (centres undefined) was tested, and the Potency was inconclusive: 0.501 µM [inhibitor, full curve, poor fit].
`Cc1ccc(OCCn2cccc2/C=C2/C(=O)NC(=O)N(Cc3ccco3)C2=O)cc1` was tested, and the Potency was inconclusive: 3.55 µM [inhibitor, full curve, poor fit].
`CC1=NN(c2ccc(C)cc2)C(=O)/C1=C/c1ccc(-c2cc([N+](=O)[O-])ccc2O)o1` was tested, and the Potency was active: 15.8 µM.
